Values joined by “and” are separate entries in the source; they are usually repeats but may differ in a detail not shown here. Identical values can stand only once. The whole screen tested about 310,000 compounds, of which about 18,000 (5.8%) were called active. The shares of active, inactive and inconclusive entries below differ from those in the screen. The call rests on the fitted dose curve; in most records, active means well fitted inhibition curve with a large enough effect; inconclusive means small, poorly fitted or top-dose-only effect, or another doubt; inactive means no such curve, though single readings can be large or run the other way. No potency is given beside an inconclusive call; the fits are too rough.
Assay: Primary qHTS for delayed death inhibitors of the malarial parasite plastid, 48 hour incubation
Settings: P. falciparum luciferase growth in erythrocytes; series mostly up to 28.7 µM
How it was run: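 Firefly luciferase activity from engineered P. falciparum reports growth; inhibitors lower the luminescent signal. Cultures contained 2% hematocrit erythrocytes at 0.1% final parasitemia.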
Potency means the concentration at half of the fitted maximal effect; tags describe the fitted curve by direction and shape.

| Compound | Potency |
| --- | --- |
| CC1Nc2ncnc(N3CCN(c4ccccc4)CC3)c2N(Cc2ccc(Cl)cc2)C1=O (centres undefined) | active: 8.28 µM |
| CCCC(=O)NC(c1ccco1)c1cc(Cl)c2cccnc2c1O (centres undefined) | active: 11.7 µM |
| c1ccc(C2CC(c3ccccc3)n3c(nc4ccccc43)N2)cc1 (centres undefined) | inconclusive [inhibitor, single point] |
| Cc1ccc(N(Cc2cc3ccccc3[nH]c2=O)C(=O)c2ccco2)c(C)c1 | inconclusive [inhibitor, partial curve] |
| Cc1ccc(C)c(-n2c(-c3csc(C)c3C)n[nH]c2=S)c1 | inconclusive [inhibitor, partial curve] |
| COc1cccc(-c2cccc(NC(=O)C3CCN(Cc4cnn(C)c4)CC3)c2)c1 | inconclusive [inhibitor, partial curve, poor fit] |
| C/C(=N\N(C)C)C1=C(O)c2ccccc2C1=O | inactive |
| CC(=O)CSc1ncnc2c1oc1ccccc12 | inactive |
| COc1ccccc1NC(=O)CN1CCN(c2ccccc2)CC1 | inactive |
| CCOC(=O)c1ccc(N2C(=O)CC(Nc3ccc(O)cc3)C2=O)cc1 (centres undefined) | inconclusive [inhibitor, single point] |
| COc1cccc(OC)c1C(=O)N1CCN(Cc2ccncc2)CC1 | inconclusive [inhibitor, single point] |
| N#CC(C#N)=C(Nc1ccc(F)cc1)SCc1cccc(F)c1 | inconclusive [inhibitor, single point] |
| COc1ccc(Cn2nnnc2C(c2ccc3ncccc3c2)N2CCN(C3CCCCC3)CC2)cc1 (centres undefined) | inconclusive [inhibitor, partial curve, poor fit] |
| CCOC(=O)CNC(=O)Cc1ccc(OC)cc1 | inactive |
| O=C(Nc1cccc(S(=O)(=O)NC2=NCCC2)c1)C1CCCCC1 | inactive |
| Cc1cc(Cl)ccc1OCC(=O)Nc1nc(-c2cccs2)cs1 | inactive |
| CCCCS(=O)(=O)N1C2=NC(C(=O)OC)=C(C(=O)OC)[C@@H]3N(C)c4ccc(OC)cc4[C@]23C[C@H]1C(=O)OC | active: 10.4 µM |
| COc1cc(/C=C2\CCC/C(=C\c3ccc(O)c(OC)c3)C2=O)ccc1O | active: 10.7 µM and active: 9.28 µM |
| CCn1nc(C)c(CN2CCC(C(=O)Nc3cccc(-c4cccc(Cl)c4)c3)CC2)c1C | inconclusive [inhibitor, single point] |
| CN(C1CCCCC1)S(=O)(=O)c1cc2c3c(c1)CCN3C(=O)CC2 | inconclusive [inhibitor, full curve, poor fit] |
| Cc1ccccc1NC(=O)c1csc2c1CCCC2 | inconclusive [inhibitor, full curve, poor fit] |
| CCN(CC(=O)Nc1ccc2c(c1)OCCO2)Cc1cc(=O)oc2c(C)c(C)ccc12 | inconclusive [inhibitor, single point] |
| O=C(CCl)N1CCCC1c1ccc2c(c1)OCCO2 (centres undefined) | inconclusive [inhibitor, partial curve, poor fit] |

| Compound | Potency |
| --- | --- |
| CCCCNC(=O)c1onc(CSc2ccncc2)c1C(=O)NCCCC | inconclusive [inhibitor, single point] |
| COc1ccc(CCNC(=O)CSc2nc(N)c(C#N)c(-c3cccs3)c2C#N)cc1OC | inconclusive [inhibitor, partial curve, poor fit] |
| C=CCOc1ccc2ccccc2c1CNCCCN1CCOCC1 | inconclusive [inhibitor, partial curve, poor fit] |
| COc1ccc(C(=O)N2CCN(c3ccccc3)CC2)cc1S(=O)(=O)N1CCOCC1 | inactive |
| CCOC(=O)c1cc(-c2ccc3c(c2)OCCO3)n[nH]1 | inactive |
| Cc1cc(C)c(NC(=O)CSc2nc(COc3ccccc3)nc3ccccc23)c(C)c1 | inactive |
| N#C/C(=C\c1ccc(F)c(Br)c1)C(=O)NC1CC1 | inactive |
| CCn1c(=O)n(CC)c2cc(S(=O)(=O)N3CCC(c4ccccc4)CC3)ccc21 | inconclusive [inhibitor, partial curve, poor fit] |
| CC(C)OCCCNC(=O)c1c(N)n(Cc2cccs2)c2nc3ccccc3nc12 | active: 9.28 µM |
| O=C(NCc1ccccc1)C1=C[C@H](c2ccc(C(F)(F)F)cc2)C[C@H](OCc2ccc(CO)cc2)O1 | inconclusive [inhibitor, partial curve, poor fit] |
| CCCOP(=O)(c1ccc(N(C)C)cc1)C(O)c1ccc(Cl)cc1Cl (centres undefined) | active: 7.38 µM |
| N#CC1=C2SCC(O)(c3ccccc3)N2C(=O)CC1c1ccccc1 (centres undefined) | inconclusive [inhibitor, partial curve, poor fit] |
| Cc1ccc(-c2nnc(N3CCOCC3)c3ccccc23)cc1S(=O)(=O)NCc1cccnc1 | inconclusive [inhibitor, partial curve, poor fit] |
| CSc1ccccc1OCc1cc(C(=O)N2CCN(c3ccccc3)CC2C)no1 (centres undefined) | inconclusive [inhibitor, partial curve, poor fit] |
| Cc1cccc(C(=O)N[C@H](C(=O)Nc2ccc(C)c(S(=O)(=O)N(C)C)c2)C(C)C)c1 | inconclusive [inhibitor, partial curve] |
| N#Cc1ccc(N=c2ssnc2Cl)cc1 | inactive |
| CC(C)C(c1nnnn1Cc1cccs1)N1CCN(C(=O)c2ccco2)CC1 (centres undefined) | inconclusive [inhibitor, partial curve] |
| COc1cc(/C=C/C(=O)OCC(=O)N2CC3(C)CC2CC(C)(C)C3)ccc1O (centres undefined) | inconclusive [inhibitor, single point] |
| N#CC(=C=[N-])c1nc2ccccc2nc1-[n+]1cccc(NC(=O)c2ccccc2)c1 | inconclusive [inhibitor, partial curve] |
| COCCCNC(=O)c1cccs1 | inactive |
| COc1cccc(OC)c1C(=O)Nc1cccnc1 | inconclusive [inhibitor, single point] |
| O=C(NCc1ccco1)C12CN(Cc3ccccc3)CC1C(c1ccc([N+](=O)[O-])cc1)=NO2 (centres undefined) | active: 11.7 µM |
| CCN(c1ccccc1)S(=O)(=O)c1cccc(C(=O)NCC(c2ccco2)N2CCCC2)c1 (centres undefined) | inconclusive [inhibitor, partial curve] |

| Compound | Potency |
| --- | --- |
| O=C(NCc1cccs1)C(NS(=O)(=O)c1cccc2nsnc12)c1ccccc1 (centres undefined) | inconclusive [inhibitor, single point] |
| O=C1C=C(c2ccc(Cl)cc2)OC2(CCCC2)O1 | inconclusive [inhibitor, partial curve, poor fit] |
| CC(C)OC(=O)C(=O)NNc1ccccc1 | inconclusive [inhibitor, full curve, poor fit] |
| CC(=O)Nc1ccc2nc(C)n(Cc3ccc(Cl)cc3)c(=O)c2c1 | inactive |
| O=c1c2nncn2c2cc(C(F)(F)F)ccc2n1CCNc1ncc(C(F)(F)F)cc1Cl | inconclusive [inhibitor, single point] |
| COc1ccc(C(=O)OCc2c(F)cccc2Cl)cc1S(=O)(=O)N1CCOCC1 | inconclusive [inhibitor, single point] |
| COCC(=O)Nc1ccc(N2CCN(c3ccccc3)CC2)c(F)c1 | inconclusive [inhibitor, full curve, poor fit] |
| CS(=O)(=O)c1ccc(C(=O)OCC(=O)Nc2cccc(S(=O)(=O)N3CCCC3)c2)cc1 | inconclusive [inhibitor, partial curve, poor fit] |
| N#C/C(=C/c1ccc(F)cc1)S(=O)(=O)c1ccccc1 | inconclusive [inhibitor, partial curve, poor fit] |
| COCCN(CC(=O)Nc1cccc(C)c1C)C(=O)c1cc2ccccc2cc1OC | inconclusive [inhibitor, single point] |
| C/C=C(\C)C(=O)OC1C(C)=C2C(C1OC(=O)CCCCC)C(C)(OC(C)=O)CC(OC(=O)CCC)C1(O)C2OC(=O)C1(C)O (centres undefined) | active: 4.15 µM |
| CN1CCN(C(=O)c2cc(COc3ccc(F)cc3Cl)on2)CC1c1ccccc1 (centres undefined) | inconclusive [inhibitor, single point] |
| Cc1ccc(NC(=O)COC(=O)Cn2ccc(C(F)(F)F)n2)cc1Cl | inactive |
| O=C(N/N=C/c1sc(N2CCOCC2)nc1-c1ccccc1)c1ccccc1Cl | active: 10.4 µM |
| CCOC(=O)CNC(=O)CSc1ncnc2c1cnn2-c1ccccc1 | inactive |
| CC(C)Oc1ccc(CNC(=O)C2CCCN(S(=O)(=O)N3CCOCC3)C2)cc1 (centres undefined) | inactive |
| CCn1nnnc1SCC(=O)Nc1cc(C)on1 | inactive |
| Cc1nnc(N/N=C\c2ccc(-c3ccccc3[N+](=O)[O-])o2)n1N | inactive |
| C=CCn1cc(/C=N/Nc2nc3ccccc3[nH]2)c2ccccc21 | inconclusive [inhibitor, partial curve, poor fit] |
| Cc1ccc(-c2nnc(-c3cccnc3)o2)cc1 | inactive |
| COc1ccc(NC(=O)CN(c2ccccc2F)S(=O)(=O)c2ccc(C)cc2)c(OC)c1 | inconclusive [inhibitor, partial curve] |
| CCn1cc(C(=O)NCCCN(CC(C)C)CC(C)C)c(=O)c2cc(S(=O)(=O)N(C)C3CCCCC3)ccc21 | inconclusive [inhibitor, single point] |
| CC1(NC(=O)c2cccc(S(=O)(=O)N3CCN(c4ccc(F)cc4)CC3)c2)CCS(=O)(=O)C1 (centres undefined) | inconclusive [inhibitor, partial curve] |

From PubChem BioAssay AID504832 (National Center for Advancing Translational Sciences (NCATS), 2011)
